Data: PubChem BioAssay AID504333 (National Center for Advancing Translational Sciences (NCATS), 2011)
In all, about 360,000 compounds went through this assay and about 16,000 (4.4%) were called active. Inconclusive means that the source gave no clear call. Such entries were picked first, then a sample of the others. The call rests on the fitted dose curve; in most records, active means well fitted inhibition curve with a large enough effect; inconclusive means small, poorly fitted or top-dose-only effect; inactive means no such curve, though single readings can be large or run the other way. A potency beside an inconclusive call is a rough fit, not a confirmed value.

What follows are compounds tested against Bromodomain adjacent to zinc finger domain protein 2B (Homo sapiens) (UniProt Q9UIF8) (assay: qHTS Assay for Inhibitors of BAZ2B). Conditions: AlphaScreen BAZ2B-H3K14Ac peptide displacement; activity change, negative = inhibition: at 114 µM (top of the series) unless noted.
Sequence of UniProt Q9UIF8 (Q9UIF8 whole entry, looked up, the tested form may be a part): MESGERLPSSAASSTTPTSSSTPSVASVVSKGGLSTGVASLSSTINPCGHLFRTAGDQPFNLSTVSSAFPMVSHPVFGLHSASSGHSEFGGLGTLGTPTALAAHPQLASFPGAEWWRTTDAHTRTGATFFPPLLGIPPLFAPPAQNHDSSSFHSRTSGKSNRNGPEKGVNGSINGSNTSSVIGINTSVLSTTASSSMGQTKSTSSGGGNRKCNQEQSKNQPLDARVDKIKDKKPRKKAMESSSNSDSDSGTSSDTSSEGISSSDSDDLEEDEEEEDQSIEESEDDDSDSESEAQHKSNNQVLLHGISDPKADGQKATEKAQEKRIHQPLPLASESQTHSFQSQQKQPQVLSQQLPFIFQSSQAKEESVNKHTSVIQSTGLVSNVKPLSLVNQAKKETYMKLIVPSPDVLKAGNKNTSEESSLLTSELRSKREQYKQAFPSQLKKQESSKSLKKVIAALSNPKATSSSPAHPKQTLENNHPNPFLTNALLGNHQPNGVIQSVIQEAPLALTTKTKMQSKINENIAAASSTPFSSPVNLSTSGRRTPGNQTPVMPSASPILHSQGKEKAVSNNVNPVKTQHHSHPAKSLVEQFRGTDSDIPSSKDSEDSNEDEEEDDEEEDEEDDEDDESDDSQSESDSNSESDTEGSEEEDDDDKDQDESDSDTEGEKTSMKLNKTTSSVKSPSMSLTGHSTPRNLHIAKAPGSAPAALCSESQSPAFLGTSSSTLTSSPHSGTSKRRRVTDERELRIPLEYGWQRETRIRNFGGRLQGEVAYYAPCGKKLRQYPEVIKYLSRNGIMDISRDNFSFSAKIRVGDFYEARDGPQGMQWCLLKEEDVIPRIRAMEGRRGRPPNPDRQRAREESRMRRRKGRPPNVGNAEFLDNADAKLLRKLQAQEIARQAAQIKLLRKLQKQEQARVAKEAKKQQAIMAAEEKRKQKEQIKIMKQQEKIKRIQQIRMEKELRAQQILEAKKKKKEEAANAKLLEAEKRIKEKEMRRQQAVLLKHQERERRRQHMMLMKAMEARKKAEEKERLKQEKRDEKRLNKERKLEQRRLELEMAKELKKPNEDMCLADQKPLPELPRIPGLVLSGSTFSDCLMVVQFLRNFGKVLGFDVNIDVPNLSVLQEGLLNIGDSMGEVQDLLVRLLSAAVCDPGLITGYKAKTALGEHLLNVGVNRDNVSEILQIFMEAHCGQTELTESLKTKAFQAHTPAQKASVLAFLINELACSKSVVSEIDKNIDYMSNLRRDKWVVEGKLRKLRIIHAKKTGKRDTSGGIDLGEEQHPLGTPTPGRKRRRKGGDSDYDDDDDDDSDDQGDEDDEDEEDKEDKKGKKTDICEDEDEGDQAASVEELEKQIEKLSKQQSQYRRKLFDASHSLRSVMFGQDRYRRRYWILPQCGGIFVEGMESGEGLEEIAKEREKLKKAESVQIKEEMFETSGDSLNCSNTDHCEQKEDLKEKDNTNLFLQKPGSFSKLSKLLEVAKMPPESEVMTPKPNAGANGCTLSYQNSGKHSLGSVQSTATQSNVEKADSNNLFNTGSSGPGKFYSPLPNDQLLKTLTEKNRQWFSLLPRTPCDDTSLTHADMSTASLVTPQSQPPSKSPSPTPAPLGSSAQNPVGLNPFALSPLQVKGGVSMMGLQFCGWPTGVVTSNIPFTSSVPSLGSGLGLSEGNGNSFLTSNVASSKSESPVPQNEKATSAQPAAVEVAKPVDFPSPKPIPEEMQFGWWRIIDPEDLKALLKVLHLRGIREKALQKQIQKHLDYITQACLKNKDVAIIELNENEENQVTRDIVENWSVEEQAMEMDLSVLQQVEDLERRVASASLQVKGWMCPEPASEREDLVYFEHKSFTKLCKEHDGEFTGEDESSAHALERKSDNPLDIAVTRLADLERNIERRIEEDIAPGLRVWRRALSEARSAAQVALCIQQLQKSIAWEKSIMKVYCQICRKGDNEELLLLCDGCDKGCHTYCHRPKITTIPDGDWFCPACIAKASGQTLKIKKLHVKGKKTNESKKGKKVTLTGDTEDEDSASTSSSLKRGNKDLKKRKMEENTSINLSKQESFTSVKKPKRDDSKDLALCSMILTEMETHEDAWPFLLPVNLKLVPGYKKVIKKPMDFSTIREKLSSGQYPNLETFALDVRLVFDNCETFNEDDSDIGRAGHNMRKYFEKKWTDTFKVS
In short: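 Compounds, titrated to a top concentration of 110 uM, were incubated 30 min at room temperature with preformed BAZ2B/acetyl-K14 H3 peptide complex (50 nM each). Proximity signal was measured by AlphaScreen after 20 min with beads.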
Further: nearly all actives have a fitted effect of over 60% in size.
On the % scale 0 is the no-effect control and ±100 the full control effect; potency means the concentration at half of the fitted maximal effect; tags describe the fitted curve by direction and shape.

Row | Structure (SMILES) | Potency | activity change, negative = inhibition
1 | O=C(Nc1ccccc1[N+](=O)[O-])c1cc(S(=O)(=O)N2CCOCC2)cs1 | inconclusive: 79.4 µM [inhibitor, single point] | –
2 | COc1ccc(N2CCN(C(c3ccccc3F)c3sc4nc(-c5ccco5)nn4c3O)CC2)cc1 (stereo not given) | active: 39.8 µM | –
3 | COc1ccc(C2=NS(=O)(=O)N(C)C(C(=O)Nc3ccc(C)cc3)=C2)cc1 | inconclusive: 79.4 µM [inhibitor, single point] | –
4 | Cc1ccc(Cn2c(NCCc3ccccc3)nc3c2c(=O)n(C)c(=O)n3C)cc1 | inconclusive: 70.8 µM [inhibitor, single point] | –
5 | CC[n+]1cc(C)ccc1/C=C/c1ccc(N(C)C)cc1 | inconclusive: 50.1 µM [inhibitor, partial curve, poor fit] | –
6 | O=C(O)CC(CCc1ccccc1)OC1OC(CO)C(O)C(O)C1O (stereo not given) | inconclusive: 50.1 µM [inhibitor, partial curve] | –
7 | Cc1nn(-c2ccccc2)c2c1C(c1ccc(Br)s1)C(C#N)=C(N)O2 (stereo not given) | active: 11.2 µM | –
8 | CN(C)C1(CN=Cc2cc(Cl)cc([N+](=O)[O-])c2O)CCCCC1 | active: 44.7 µM | –
9 | Cc1ncc(CO)c(/C=N/N=C/c2ccccc2O)c1O | inconclusive: 89.1 µM [inhibitor, single point] | –
10 | COc1ccc(NC2c3ccccc3C(=O)N2Cc2ccco2)cc1OC (stereo not given) | inconclusive: 89.1 µM [inhibitor, single point] | –
11 | Cc1cc(OCCN2CCCCC2)nc2ccccc12 | – | inactive: -23.4%
12 | NC(=O)Cc1ccc(C(=O)c2ccc(Cl)cc2Cl)s1 | inconclusive: 79.4 µM [inhibitor, single point] | –
13 | CC(C)c1ccc(/C=C/C(=O)NC(=S)Nc2ccc(CN3CCOCC3)cc2)cc1 | inconclusive: 28.2 µM [inhibitor, full curve, poor fit] | –
14 | CC(C)CN(C)Cc1c(C(=O)N2CCc3ccccc3C2)nc2ccc(Cl)cn12 | inconclusive: 79.4 µM [inhibitor, partial curve] | –
15 | CNC(=O)COc1ccc(Nc2nnc(C)c3ccccc23)cc1 | – | inactive: -0.23%
16 | COCCSc1nnc(NS(=O)(=O)c2ccc(C)cc2)s1 | inconclusive: 89.1 µM [inhibitor, single point] | –
17 | COc1ccc(Br)c(C(=O)OCC(=O)N2CCC(Cc3ccccc3)CC2)c1 | – | inactive: 29.4%
18 | O=C(COC(=O)c1ccccn1)Nc1cc(Cl)ccc1Cl | inconclusive: 89.1 µM [inhibitor, single point] | –
19 | O=C(Cc1c[nH]c2ccccc12)NCc1ccco1 | active: 50.1 µM | –
20 | CCN1C(=O)/C(=C\c2nc3ccccc3c(=O)n2CC)c2ccccc21 | active: 44.7 µM | –
21 | COC(=O)CCCC1=CC2=C(c3ccccc3)C(=O)C(C)(OC(=O)C3CCCC3)C(=O)C2=CN1C1CCCCC1 (stereo not given) | inconclusive: 56.2 µM [inhibitor, partial curve, poor fit] | –
22 | CCOC(=O)C1=C(CS(=O)(=O)c2ccc(OC)c(Cl)c2)NC(=O)NC1c1cccc(OC)c1 (stereo not given) | inconclusive: 31.6 µM [inhibitor, single point] | –
23 | CCN1C/C(=C/c2sccc2C)c2nc3ccccc3c(C(=O)O)c2C1 | inconclusive: 79.4 µM [inhibitor, single point] | –

Row | Structure (SMILES) | Potency | activity change, negative = inhibition
24 | CC(C)(C)NC(=O)COc1ccc(CNCc2cccnc2)cc1 | inconclusive: 79.4 µM [inhibitor, partial curve] | –
25 | CC1(C)CC(=O)C2=C(C1)NC1=C(C(=O)c3ccccc31)C2c1ccc(Cl)cc1 (stereo not given) | active: 11.2 µM | –
26 | CCCn1c(=O)c2sccc2n2c(CCCC(=O)NCc3ccccc3)nnc12 | inconclusive: 79.4 µM [inhibitor, single point] | –
27 | O=C(CCCSc1ccc(Cl)cc1)Nc1cc(S(=O)(=O)N2CCOCC2)ccc1O | inconclusive: 79.4 µM [inhibitor, single point] | –
28 | CCOc1ccc(CN(C)c2ccc(S(=O)(=O)N3CCN(C)CC3)cc2[N+](=O)[O-])cc1OC | inconclusive: 79.4 µM [inhibitor, single point] | –
29 | O=C(O)c1cc2nc(-c3ccccc3)cc(-c3ccccc3)n2n1 | inconclusive: 1.41 µM [inhibitor, full curve, poor fit] | –
30 | CCOC(=O)c1c(NC(=O)CSc2cn(CCNC(=O)c3c(F)cccc3F)c3ccccc23)sc2c1CCC2 | – | inactive: -34.9%
31 | OC1CCCN(CC(O)c2ccccc2)C1 (stereo not given) | active: 50.1 µM | –
32 | Cc1cccc(NC(=O)C(Cc2ccccc2)NS(=O)(=O)c2ccc3c(c2)c(=O)n(C)c(=O)n3C)c1 (stereo not given) | active: 89.1 µM | –
33 | CC1=C(C(=O)OC2CCCCCCC2)C(c2cc3c(cc2Br)OCO3)CC(=O)N1 (stereo not given) | inconclusive: 89.1 µM [inhibitor, single point] | –
34 | Cc1cc(NC(=O)CCC(=O)N(c2ccccc2F)C(C(=O)NC2CCCC2)c2ccccc2)no1 (stereo not given) | – | inactive: 4.66%
35 | Cc1nc(N2CCCCC2)sc1C(=O)c1cccc([N+](=O)[O-])c1 | active: 39.8 µM | –
36 | O=C(Cn1nnc(-c2ccc(Cl)cc2)n1)N1CCN(C(=O)c2ccco2)CC1 | – | inactive: 12.1%
37 | CCC(C)NCCCCOc1cc(C)cc(C(C)C)c1 (stereo not given) | inconclusive: 89.1 µM [inhibitor, single point] | –
38 | O=C(O)CCc1ccc(-c2ccc(Br)cc2)n1-c1ccc(O)cc1 | active: 39.8 µM | –
39 | COCC(C)NCc1cccc([N+](=O)[O-])c1 (stereo not given) | active: 50.1 µM | –
40 | CCn1c(-c2c[nH]c3ccccc23)n[nH]c1=S | – | inactive: 1.21%
41 | N#C/C(=C(/O)COC(=O)CCc1ccc(S(=O)(=O)N2CCOCC2)cc1)c1nc2ccccc2[nH]1 | – | inactive: 1.73%
42 | N#C/C(=N\Nc1cccc(C(F)(F)F)c1)C(=O)c1ccsc1 | active: 39.8 µM | –
43 | COc1ccc(-c2[nH]ncc2CN(Cc2nccn2C)C(C)C)c(F)c1 | inconclusive: 89.1 µM [inhibitor, single point] | –
44 | COC(=O)CSc1nnc(-c2ccccc2O)n1-c1ccc(C)cc1 | inconclusive: 89.1 µM [inhibitor, single point] | –
45 | COc1ccc(NC(=O)CSc2nnc(Cc3cccn3C)n2-c2ccc(F)cc2)cc1 | inconclusive: 44.7 µM [inhibitor, partial curve] | –
